Laboratory results: PubChem BioAssay AID2675 (National Center for Advancing Translational Sciences (NCATS), 2010)
About 100 (0.036%) of roughly 280,000 compounds were called active. Inconclusive means that the source gave no clear call. Such entries were picked first, then a sample of the others. Calls come from the whole dose curve; as a rule, active = well fitted inhibition curve with a large enough effect in the signal ratio, with a control signal flat (not every such curve was filed as active); inconclusive = small, poorly fitted or top-dose-only effect, or effect the other way, or a change in a side signal; inactive = no such curve, though single readings can be large or run the other way; the % refers to the signal ratio. Potencies beside an inconclusive call are fits to weak or partial responses and may not hold up. “Side channel” marks fits to a control or component signal instead of the main read-out.

Biological target: Muscleblind-like protein 1 (Homo sapiens) (UniProt Q9NR56)
UniProt Q9NR56, sequence (Q9NR56 whole entry, looked up): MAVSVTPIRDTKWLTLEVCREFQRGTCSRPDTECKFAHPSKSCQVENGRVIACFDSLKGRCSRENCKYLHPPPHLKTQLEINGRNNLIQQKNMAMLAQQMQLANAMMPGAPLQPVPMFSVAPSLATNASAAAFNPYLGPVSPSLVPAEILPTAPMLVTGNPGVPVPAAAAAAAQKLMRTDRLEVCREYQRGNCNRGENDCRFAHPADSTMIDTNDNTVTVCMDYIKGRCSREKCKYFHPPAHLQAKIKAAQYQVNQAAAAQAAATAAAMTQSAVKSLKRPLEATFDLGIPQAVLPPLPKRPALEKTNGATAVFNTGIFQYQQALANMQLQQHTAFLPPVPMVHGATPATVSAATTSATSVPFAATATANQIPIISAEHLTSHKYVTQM
Assay: qHTS Assay for Inhibitors of MBNL1-poly(CUG) RNA binding
Details: TR-FRET MBNL1-His/biotin-(CUG)12 binding, 665/545 ratio; activity change, negative = inhibition: at 57.5 µM (top of the series)
Procedure, shortened: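 Inhibition of protein-RNA binding appears as loss of TR-FRET between terbium anti-His antibody on MBNL1-His and streptavidin-XL665 on biotin-(CUG)12. Activity is normalized to buffer-only and uninhibited-complex controls.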
% is set by controls: 0 for no effect and ±100 for the full control effect; potency is the fitted concentration of half-maximal effect; tags give direction and shape of the fitted curve or compound fluorescence and quenching.

Structure (SMILES) | activity change, negative = inhibition | Potency
O=C(NCCNC(=O)c1ccccc1Br)c1cccnc1 | inactive: 3.75% | 
N#Cc1c(N)n(-c2ccccc2)c(=O)c2cc([N+](=O)[O-])ccc12 |  | inconclusive: 1.58 µM [quencher, full curve, poor fit]
Nn1cnnc1N/N=C/c1cccc(Cl)c1Cl |  | inconclusive: 31.6 µM [quencher, side channel, single point]
COCC(=O)N(Cc1nc2sc(C)c(C)c2c(=O)[nH]1)C1CCCCC1 | inactive: -8.93% | 
O=C(OC(c1ccccc1)c1nccc2ccccc12)c1cc([N+](=O)[O-])cc([N+](=O)[O-])c1 (configuration not stated) |  | inconclusive: 3.55 µM [quencher, side channel, full curve]
O=CN1CCN(C(=O)c2ccc(-c3nc4ccccc4s3)s2)CC1 |  | inconclusive: 11.2 µM [quencher, side channel, partial curve]
Cc1ccc(NC2c3ncccc3C(=O)N2Cc2cccs2)cc1 (configuration not stated) |  | active: 39.8 µM
Cc1cc(C(=O)N/N=C\c2ccc(COc3ccc([N+](=O)[O-])cc3)o2)ccc1[N+](=O)[O-] | inactive: 6.56% | 
O=C(O)c1cccc(NC2=C(N3CCOCC3)C(=O)c3ccccc3C2=O)c1 |  | inconclusive: 39.8 µM [quencher, side channel, single point]
Cc1c(CN(C)C(=O)c2ccc(Br)o2)cnn1C |  | inconclusive: 50.1 µM [inhibitor, single point]
COc1ccccc1/C=C/C=C1\Oc2c(ccc(O)c2CN2CCN(CCO)CC2)C1=O |  | inconclusive: 12.6 µM [quencher, side channel, partial curve]
Cc1cc(-c2n[nH]c(=S)n2/N=C/c2ccc(C)s2)n[nH]1 |  | inconclusive: 14.1 µM [quencher, side channel, partial curve, poor fit]
O=[N+]([O-])c1ccc2nc(C(O)C(O)c3nc4ccc([N+](=O)[O-])cc4[nH]3)[nH]c2c1 (configuration not stated) |  | inconclusive: 15.8 µM [quencher, partial curve]
Cc1cc(C)cc(NC(=S)N2CCN(c3ncccn3)CC2)c1 | inactive: -8.89% | 
N#C/C(=C\c1cccs1)C(=O)NCc1ccccc1 |  | inconclusive: 25.1 µM [quencher, side channel, single point]
CNC(=S)N/N=C(\C)c1ccc(N2CCOCC2)cc1 |  | inconclusive: 39.8 µM [quencher, side channel, partial curve]
O=C(NC(NC(=S)Nc1ccccc1C(=O)O)C(Cl)(Cl)Cl)c1cccc([N+](=O)[O-])c1 (configuration not stated) |  | inconclusive: 20 µM [quencher, side channel, single point]
